Measured values from article PMC4336329 (PLoS ONE, 2015).
In all, about 310,000 compounds went through this assay and about 2,200 (0.71%) showed an effect of 50% or more. The effect is printed as a negative number. The list shows a part of the results.

Target: human ether-à-go-go-related gene (hERG) potassium channel (human, UniProt Q12809)
Test: primary screen, population patch clamp on CHO cells stably expressing hERG

Sequence of human ether-à-go-go-related gene (hERG) potassium channel (Q12809 whole entry, looked up): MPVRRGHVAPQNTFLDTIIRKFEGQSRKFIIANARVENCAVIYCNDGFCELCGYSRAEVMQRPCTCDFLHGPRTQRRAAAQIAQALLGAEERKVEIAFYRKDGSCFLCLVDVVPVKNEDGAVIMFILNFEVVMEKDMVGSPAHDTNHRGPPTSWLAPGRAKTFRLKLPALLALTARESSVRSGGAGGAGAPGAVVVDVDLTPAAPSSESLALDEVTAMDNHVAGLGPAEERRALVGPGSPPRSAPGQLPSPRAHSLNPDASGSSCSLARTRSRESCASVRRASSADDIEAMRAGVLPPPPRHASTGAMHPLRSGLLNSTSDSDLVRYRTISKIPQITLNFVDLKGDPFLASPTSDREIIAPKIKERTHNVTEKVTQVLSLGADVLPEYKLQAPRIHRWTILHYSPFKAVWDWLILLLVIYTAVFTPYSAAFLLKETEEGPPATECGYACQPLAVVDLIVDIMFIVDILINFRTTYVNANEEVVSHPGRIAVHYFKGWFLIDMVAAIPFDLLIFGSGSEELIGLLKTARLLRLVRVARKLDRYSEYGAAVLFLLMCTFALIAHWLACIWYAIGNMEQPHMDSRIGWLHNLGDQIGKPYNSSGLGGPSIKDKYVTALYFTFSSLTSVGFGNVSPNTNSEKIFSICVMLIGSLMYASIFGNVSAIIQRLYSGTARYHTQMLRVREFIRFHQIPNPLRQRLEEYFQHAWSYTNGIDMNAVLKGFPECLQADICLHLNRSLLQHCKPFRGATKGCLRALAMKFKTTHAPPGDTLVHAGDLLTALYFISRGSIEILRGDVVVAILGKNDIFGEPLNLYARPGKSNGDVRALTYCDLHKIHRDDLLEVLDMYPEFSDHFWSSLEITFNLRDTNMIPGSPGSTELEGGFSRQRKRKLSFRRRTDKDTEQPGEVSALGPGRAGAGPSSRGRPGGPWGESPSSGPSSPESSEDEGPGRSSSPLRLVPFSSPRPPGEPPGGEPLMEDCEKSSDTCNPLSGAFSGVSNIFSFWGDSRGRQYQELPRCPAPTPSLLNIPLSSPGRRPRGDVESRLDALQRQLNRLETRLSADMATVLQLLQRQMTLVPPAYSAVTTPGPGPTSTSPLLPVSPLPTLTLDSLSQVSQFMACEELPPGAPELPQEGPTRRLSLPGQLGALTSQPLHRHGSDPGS

In order of rising “hERG current change (%, negative = inhibition) at 1uM” value:
1. CCCN(CCC)CCCNC(=O)c1ccc(CS(=O)(=O)c2c(Cl)cccc2Cl)o1  -59.1%
2. CSc1ccc(CN2CCC(Oc3cccc(C(=O)N4CCCC4)c3)CC2)cc1  -36.7%
3. O=C(NCC(c1ccco1)N1CCc2ccccc2C1)c1cccc(F)c1 (centres unmarked)  -23.9%
4. COCCNC(=S)N/N=C(\C)c1cccc([N+](=O)[O-])c1  -12.2%
5. O=C1CC(C(=O)N2CCN(Cc3ccccc3)CC2)CN1Cc1ccccc1 (centres unmarked)  -10.5%
6. O=C(c1ccc(S(=O)(=O)N2CCOCC2)cc1)N1CCN(C2=NS(=O)(=O)c3ccccc32)CC1  -7.72%
7. C=CCc1ccccc1OCC(O)CN1CCN(c2ccc(C)cc2)CC1 (centres unmarked)  -7.69%
8. COc1ccc(NC(=O)Nc2ncn(Cc3cccc(C(F)(F)F)c3)n2)cc1OC  -7.14%
9. COc1ccc(CCNCC(=O)Nc2ccc(OC(F)(F)F)cc2)cc1OC.Cl  -4.82%
10. O=C(Oc1cccc([N+](=O)[O-])c1)C1CCN(C(=O)c2ccc(F)cc2)CC1  -3.31%
11. COc1cc(C2C(C(=O)OCCC#N)=C(C)NC3=C2S(=O)(=O)c2ccccc23)cc(OC)c1OC (centres unmarked)  -2.47%
12. O=C(Nc1cccc(S(=O)(=O)Nc2ccccc2Cl)c1)c1ccc(Cl)nc1  -0.716%
13. COc1ccc(F)cc1S(=O)(=O)N1CCCCC1  -0.707%
14. O=C(CC1CC2CCC1C2)NCCc1ccc(Cl)cc1 (centres unmarked)  -0.305%
15. Cc1cccn2cc(CCNC(=O)c3ccc(Br)o3)nc12  -0.0936%
16. O=C(NCc1ccccc1)NC1(C(=O)N2CCN(c3ccccc3)CC2)CCCCC1  0.276%
17. CCN(Cc1ccccc1)C(=O)c1c[nH]c2ccc(S(=O)(=O)N(C)CCC#N)cc2c1=O  0.553%
18. CC(C)OC(=O)c1c(N)n(Cc2ccco2)c2nc3ccccc3nc12  0.554%
19. Cc1cc(-c2ccccc2)nc2cc(C(=O)NCCCn3ccnc3)nn12  1.58%
20. N#Cc1c2n(c3c(=O)n(CC(=O)c4ccc([N+](=O)[O-])cc4)cnc13)CCCCC2  1.72%
21. CC/C(=N/O)C(=O)c1ccc(Br)cc1  2.46%
22. Cc1nn(Cc2ccccc2)c(C)c1C(=O)OCC(=O)Nc1cccc(S(N)(=O)=O)c1  2.52%
23. CN(C1CCS(=O)(=O)C1)S(=O)(=O)c1ccc(C2CCCCC2)cc1 (centres unmarked)  3.15%
24. CCN1CCN(c2ccc(S(=O)(=O)N3CCCCC3)cc2N)CC1  3.74%
25. O=C(CSc1cccc(C(F)(F)F)c1)Nc1ccc(Cl)cc1Cl  3.96%
26. CCc1nc(N)c(C#N)c(-c2ccc(F)cc2)c1C  4.46%
27. Cc1ccccc1OCC(=O)Nc1ccc(NC(=O)c2ccco2)cc1  4.57%
28. Cn1c(-c2ccc3c(c2)OCO3)cnc1N  4.58%
29. CCN1CCN(S(=O)(=O)c2ccc(S(=O)(=O)NC3CC3)cc2)CC1  4.64%
30. O=C1CCc2cc(S(=O)(=O)Nc3ccc(C(F)(F)F)cc3)cc3c2N1CC3  4.87%
31. CCOC(=O)N1CCC(NC(=O)Cn2cc3c(n2)CCCC3)CC1  4.94%
32. O=C(O)C1CCCN1C(=O)OCc1ccccc1 (centres unmarked)  5.34%
33. COc1ccc(-c2cn(CCC(=O)O)c(-c3ccc(Cl)nc3)n2)cc1  5.57%
34. Cc1scc(C(=O)NNC(=S)NCc2ccccc2)c1C  5.62%
35. S=C(NC1CCCCCC1)NC1CCCC1  5.91%
36. COc1ccccc1NS(=O)(=O)c1cc(NC(=O)CC(C)(C)C)ccc1N1CCOCC1  6.17%
37. Nc1nc(OCc2ccccc2)c2[nH]cnc2n1  6.33%
38. CC1CCC(NCCNC(=O)c2ccco2)CC1 (centres unmarked)  6.46%
39. O=C(O)c1ccc2c(c1)C(=O)N(c1nccs1)C2=O  7.31%
40. Cc1onc(-c2ccccc2Cl)c1C(=O)Nc1cccc2cccnc12  7.37%
41. O=C(CCCC(=O)N(CC(=O)NC1CCCC1)c1ccc(F)c(Cl)c1)Nc1ccccn1  7.4%
42. N=Cc1c(O)n(-c2ccccc2)c(=O)n(-c2ccccc2)c1=O  7.5%
43. Cc1ccc(S(=O)(=O)N[C@@H](Cc2ccccc2)C(=O)N2CCC(C(=O)N[C@H](C(=O)O)C(C)O)CC2)cc1 (some centres unmarked)  7.7%
44. Cc1ccccc1-c1c(C)oc2cc(O)ccc2c1=O  7.86%
45. CCOc1ccc(NC(=S)N2CCC(N(C)CC3CCCO3)CC2)cc1 (centres unmarked)  7.86%
46. COc1ccc(-c2nc(-c3ccccn3)nc(N3CCN(C)CC3)c2C#N)cc1  7.89%
47. CCN1CCN(CCCNC(=O)c2cc3c(=O)oc4ccc(C)cc4c3s2)CC1  8.15%
48. Cc1ccc(Nc2nnc(SCC(=O)NC3CCS(=O)(=O)C3)s2)c(C)c1 (centres unmarked)  8.28%
49. Nc1nc(NCc2ccccc2)nc(Nc2ccc(F)cc2)c1[N+](=O)[O-]  8.44%
50. O=C(NCCS(=O)(=O)NCc1ccccc1Cl)c1ccc2c(c1)OCO2  8.74%
51. CC1(C)C2CCC1(CS(=O)(=O)Nc1cccc(S(N)(=O)=O)c1)C(=O)C2 (centres unmarked)  8.84%
52. Cc1cccn2c(=O)c3cc(C(=O)N4c5ccccc5CC4C)n(C)c3nc12 (centres unmarked)  9.27%
53. CC[N+](C)(CC)CCCCOc1ccc2c(c1)C(=O)c1cc(OCCCC[N+](C)(CC)CC)ccc1-2.[I-]  9.73%
54. COc1cc(-c2nc3ccc4ccccc4c3c3c2CCC3)ccc1O  10.4%
55. CC1=NN(C(=O)CSCc2ccccc2)C(O)(c2ccc(F)cc2)C1 (centres unmarked)  10.6%
56. O=C(Cn1cnc([N+](=O)[O-])c1)NCc1ccc(F)cc1  10.6%
57. CC(=O)Nc1cccc(C(=O)NCCc2ccco2)c1  10.8%
58. c1ccc(N=P(c2nc3ccccc3o2)(N2CCOCC2)N2CCOCC2)cc1  11.2%
59. O=C(O)c1c2c(nc3ccccc13)/C(=C/c1ccccc1[N+](=O)[O-])CCC2  11.2%
60. O=C(Nc1nc2ccccc2n1CCN1CCOCC1)c1ccc(Cl)cc1  11.5%
61. O=C(COc1cc(Cl)c(Cl)cc1Cl)N1CCN(c2ccccn2)CC1  11.7%
62. O=C(NC1CC(=O)N(c2ccc3c(c2)OCCO3)C1)N1CCCCC1 (centres unmarked)  11.7%
63. O=C(CSc1nc(-c2ccco2)cc(C(F)(F)F)n1)N1CCN(c2cccc(Cl)c2)CC1  11.8%
64. CC(=O)c1c(C)[nH]c(C(=O)OCC(=O)Nc2cc(C)on2)c1C  12.8%
65. COc1ccccc1CNS(=O)(=O)c1c(C)nc2sccn2c1=O  12.8%
66. CCn1ccnc1CN1CCC(CO)(CCOc2ccccc2)CC1  13.1%
67. O=C(COc1cccc(Cl)c1Cl)Nc1ccc2c(c1)CCC2  13.2%
68. O=C(Nc1nncs1)c1cc(S(=O)(=O)N2CCCCC2)ccc1Cl  13.3%
69. OCCN(CC#CC(O)(c1ccccc1)c1ccccc1)CCO  13.3%
70. COc1cccc(C2NC(=O)NC(C)=C2C(=O)OCC2CCCCC2)c1 (centres unmarked)  13.4%
71. CC(=O)Oc1ccc(C(=O)Nc2cc(C)on2)cc1  13.5%
72. CCOC(=O)c1cc2ccc3ccccc3c2s1.O=C(O)CCCCC(=O)O  13.6%
73. Cc1ccc(S(=O)(=O)Nc2ccc(N(C)S(=O)(=O)c3ccc(C)cc3)cc2)cc1  13.9%
74. COc1ccc(C(=O)N2CCOCC2)cc1Br  14.2%
75. CC(=O)Nc1sc(C)c(C)c1C(=O)OC(C)C  14.6%
76. COc1ccc(CCN(C)C(=O)CNC(=O)c2ccc3c(c2)OCO3)cc1OC  14.6%
77. C=CCNC(=S)Nc1c(C(=O)OC)[nH]c2cc(OC)ccc12  15%
78. Cc1cc2oc(=O)cc(CN3CCCCC3)c2cc1O  15.1%
79. CCOC(=O)N1CCN(C(=S)NCCOC)CC1  15.6%
80. O=C(CN1C(=O)c2ccccc2C1=O)N1CCN=C1c1ccccc1  15.7%
81. CCOc1ccc(NC(=O)CC2SC(N)=NC2=O)c([N+](=O)[O-])c1 (centres unmarked)  15.9%
82. N#Cc1c(N2C(=O)C3C4C=CC(C4)C3C2=O)sc2c1CCC2 (centres unmarked)  16.1%
83. Cc1[nH]c2ccccc2c1SCC(=O)N1CCCc2ccccc21  16.5%
84. Cc1cccc(-n2ncc(Cl)c(Cl)c2=O)c1  17.1%
85. O=C(N/N=C/c1ccccc1O)c1cccc2ccccc12  17.3%
86. CN1CCCN(c2ccc([N+](=O)[O-])nc2)CC1  18.7%
87. Cc1nc(N2CCN(c3ccccc3)CC2)nc2c1C(=O)CC(c1ccccc1)C2 (centres unmarked)  19%
88. Cc1ccc(S(=O)(=O)c2cccc(S(=O)(=O)N3CCOCC3)c2)cc1S(=O)(=O)N1CCOCC1  19.3%
89. COc1ccccc1C(=O)NCCC(=O)N1CCCC(C(F)(F)F)C1 (centres unmarked)  21.4%
